# Source: PubChem BioAssay (NCI)
#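 Protocol summary: plate cells (96-well), add compound at 5 concentrations, incubate 48 h, interpolate endpoints linearly. GI50: concentration for 50% inhibition of growth. TGI: concentration producing complete growth inhibition.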
# System: NCI-H322M lung
# Assay: inhibition of tumour cell growth, NCI panel, 48 h
smiles,measurement,value
COCCOc1ccc2ncc(C#Cc3cncc(C(=O)Nc4ccc(CN5CCN(C)CC5)c(C(F)(F)F)c4)c3)n2n1,GI50,1010 nM
same,TGI,4700 nM
